# The campaign covered roughly 310,000 compounds. About 2,200 (0.71%) showed an effect of 50% or more. Effects have a minus sign here. This is one part of the list.
# Biological target: human ether-à-go-go-related gene (hERG) potassium channel (human, UniProt Q12809)
# Assay: primary screen, population patch clamp on CHO cells stably expressing hERG
# Sequence of human ether-à-go-go-related gene (hERG) potassium channel (Q12809 whole entry, looked up): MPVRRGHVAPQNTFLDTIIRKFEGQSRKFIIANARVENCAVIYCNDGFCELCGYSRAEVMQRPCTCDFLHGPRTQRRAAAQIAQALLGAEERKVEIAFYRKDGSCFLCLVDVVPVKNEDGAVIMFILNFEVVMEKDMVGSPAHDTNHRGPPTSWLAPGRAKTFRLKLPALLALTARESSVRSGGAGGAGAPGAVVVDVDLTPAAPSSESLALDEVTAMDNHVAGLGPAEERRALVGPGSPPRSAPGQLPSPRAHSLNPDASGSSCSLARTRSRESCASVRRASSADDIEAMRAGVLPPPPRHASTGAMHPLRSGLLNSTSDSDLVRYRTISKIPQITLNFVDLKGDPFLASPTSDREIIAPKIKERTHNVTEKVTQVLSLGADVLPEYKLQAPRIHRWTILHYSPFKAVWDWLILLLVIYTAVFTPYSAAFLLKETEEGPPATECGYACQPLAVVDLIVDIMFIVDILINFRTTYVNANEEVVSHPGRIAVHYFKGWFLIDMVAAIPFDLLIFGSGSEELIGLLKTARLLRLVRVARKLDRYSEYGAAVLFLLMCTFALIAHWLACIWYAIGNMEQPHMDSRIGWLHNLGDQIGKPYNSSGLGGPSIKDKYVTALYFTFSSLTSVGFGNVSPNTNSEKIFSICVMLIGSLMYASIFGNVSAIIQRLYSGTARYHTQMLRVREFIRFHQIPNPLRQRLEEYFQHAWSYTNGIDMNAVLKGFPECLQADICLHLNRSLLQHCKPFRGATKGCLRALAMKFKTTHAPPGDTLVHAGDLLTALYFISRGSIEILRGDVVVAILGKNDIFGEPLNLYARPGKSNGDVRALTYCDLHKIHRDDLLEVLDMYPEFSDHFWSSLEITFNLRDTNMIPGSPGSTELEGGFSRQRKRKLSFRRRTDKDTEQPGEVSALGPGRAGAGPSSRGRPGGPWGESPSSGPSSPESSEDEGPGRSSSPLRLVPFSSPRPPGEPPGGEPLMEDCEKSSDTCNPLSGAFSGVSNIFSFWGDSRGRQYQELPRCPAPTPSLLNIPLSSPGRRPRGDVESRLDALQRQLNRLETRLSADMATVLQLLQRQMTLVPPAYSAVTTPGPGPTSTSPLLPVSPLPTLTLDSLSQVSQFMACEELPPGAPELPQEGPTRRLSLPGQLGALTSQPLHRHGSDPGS
row,SMILES,"hERG current change (%, negative = inhibition) at 1uM"
1,CC(C)(C)c1ccc(C(=O)NC(Cc2ccccc2)C(=O)O)cc1 (centres unmarked),-11.4%
2,Cc1cccc(CC(=O)c2c[nH]c3ccccc23)c1,11.8%
3,CCCCn1c(CN2CCN(C(=O)OCC)CC2)nc2c1c(=O)n(C)c(=O)n2C,1.39%
4,Cn1c(SCc2nc(-c3ccc(Cl)cc3)no2)nnc1-c1ccco1,-11.5%
5,O=C1C(=O)N(CCN2CCCCC2)c2ccccc21,2.06%
6,COCc1cc(Sc2ccc(Cl)cc2Cl)nc(-c2ccccc2)n1,15.7%
7,Cc1cc([N+](=O)[O-])nn1CC(=O)N1CCCc2ccccc21,16.8%
8,Cc1ccccc1Cn1nnc(-c2ccc(C(=O)O)cc2)n1,16.2%
9,Cc1csc(NC(=O)C2CC(=O)N(c3ccc(C)c(C)c3)C2)n1 (centres unmarked),6.44%
10,CNc1nnc(-c2ccncc2)s1,5.14%
11,Cc1cc(C)n(C(=O)CCNC(=O)c2ccccc2Cl)n1,11.7%
12,Cc1sc[n+](CC(=O)c2ccc(Br)cc2)c1C.[Br-],2.98%
13,CC(C)Oc1cccc(C(=O)Nc2ccc(N3CCN(C)CC3)cc2)c1,-0.048%
14,O=S(=O)(Nc1ccccc1)c1ccc(Oc2ncc(C(F)(F)F)cc2Cl)cc1,-0.721%
15,O=C(CCN1CCCC1)Nc1cccc(Br)c1,-6.19%
16,CCOc1ccc(CN(C)C(=O)CCc2ccc(S(=O)(=O)N3CCCCCC3)cc2)cc1,-4.81%
17,CS(=O)(=O)c1ccc(-c2cn3cc(C(=O)O)ccc3n2)cc1,9.57%
18,CC1CCCCC1NC(=O)c1ccncc1 (centres unmarked),10.7%
19,CCC(C)[C@H](NS(=O)(=O)c1ccc(C)cc1)C(=O)N1CCC(C(=O)N2CCC(C(=O)OC)CC2)CC1 (some centres unmarked),6.12%
20,Cc1ccc(C(=O)Cn2c3[n+](c4ccccc42)CC(O)CS3)cc1.[Br-] (centres unmarked),7%
21,COc1cccc(NC(=O)COC(=O)c2nc3nccc(C)n3n2)c1,4.77%
22,CC1=C(C(=O)Nc2ccccn2)C(c2cccnc2)n2nnnc2N1 (centres unmarked),11%
23,Cc1ccc(NC(=O)CN(C)CC(=O)Nc2ccccc2Oc2ccccc2)cc1.O=C(O)C(=O)O,19.4%

row,SMILES,"hERG current change (%, negative = inhibition) at 1uM"
1,O=C(N/N=C/c1ccccc1Cl)C1CC1,5.67%
2,O=C(Nc1cccc(Cl)c1)OCCN1CCN(Cc2ccccc2)CCC1=O,-4.66%
3,Cc1[nH]c(C)c(S(=O)(=O)Nc2ccc(OC(F)(F)F)cc2)c1C(=O)N1CCCCC1,-4.47%
4,COc1ccc(N2C(=O)CC(N3CCN(c4ccc(Cl)cc4)CC3)C2=O)cc1 (centres unmarked),8.76%
5,CCc1ccccc1NC(=S)NCc1cccn1C,14.5%
6,CCSc1nnc2nc3[nH]c4c(C)cccc4c3nn12,14.8%
7,COc1cc(CN(C)CC2CCCN(CCc3ccccc3F)C2)cc(Cl)c1OC (centres unmarked),-17.2%
8,O=S(=O)(NCC1COc2ccccc2O1)c1ccc2ccccc2c1 (centres unmarked),12.9%
9,Cc1ccccc1NC(=O)CNc1ccc(Cl)c(C(F)(F)F)c1,16.5%
10,Cc1cc(C)c2c(C)c(C(=O)NCc3ccc(S(N)(=O)=O)cc3)oc2c1,14.2%
11,O=C(NCCCN1CCOCC1)C(=O)NCc1ccc(Cl)cc1,9.27%
12,Cc1cccc(NC(=S)N2CCC(C(N)=O)(N3CCCCC3)CC2)c1C,18.7%
13,Cc1ccccc1CSc1nnc(-c2ccncc2)n1C,-1.35%
14,CCCc1cc(=O)[nH]c(SCC(=O)C(C)(C)C)n1,10.1%
15,CN1C(=O)c2cccc(NCCCCCCN3C(=O)c4ccccc4C3=O)c2C1=O,12.6%
16,CCNC(=O)NC(=O)C(C)Sc1nc2cc(C(=O)OC)ccc2c(=O)n1-c1ccccc1 (centres unmarked),7.8%
17,C(=N\NCc1ccccc1)/c1ccc2nccnc2c1,7.94%
18,CC(=O)Oc1ccc(C(=O)[C@H]2[C@H]3C(=O)N(c4ccc(C)cc4C)C(=O)[C@H]3[C@@H]3C=CC=NN32)cc1,9.02%
19,O=C1OCC(Cn2c3ccccc3c3ccccc32)O1 (centres unmarked),-2.67%
20,CCOC(=O)N1CCN(C(=O)c2ccc(CS(=O)(=O)c3ccccc3OC)o2)CC1,3.47%
21,CCOc1cc(CNCc2ccccn2)cc(Cl)c1OC.Cl,13.7%
22,CC1S/C(=N/N=C/c2ccco2)NC1=O (centres unmarked),7.15%
23,CCOC(=O)C1CCN(CC(O)COC(CC)c2ccccc2)CC1.Cl (centres unmarked),-17.7%

row,SMILES,"hERG current change (%, negative = inhibition) at 1uM"
1,CCOC(=O)Cc1csc(NC(=O)CSc2nnc(-c3ccncc3)n2Cc2ccco2)n1,7.77%
2,COc1ccccc1NC(=O)C/C(C)=N/NC(=O)c1ccccn1,15.5%
3,Cn1c(N)c(C(=O)COC(=O)C2=NNC(=O)CC2)c(=O)n(C)c1=O,18.1%
4,Cc1ccccc1C(=O)N1CCN(C(c2ccccc2)c2ccccc2)CC1.Cl,12%
5,COc1ccc(-c2c(-c3ccccc3OC)sc3ccccc23)cc1OC,8.83%
6,Cc1ccccc1OCC(=O)NNC(=O)C1CCN(c2ncnc3sc(C)c(C)c23)CC1,-1.23%
7,O=C(O)CCc1nn2c3ccccc3nc2n(-c2ccccc2)c1=O,-0.587%
8,Cn1c(=O)[nH]c(=O)c2c1nc(Br)n2C/C=N/NC(=O)c1ccccc1,17.2%
9,Cc1cc(=O)oc2c(C)c(OC(C)C(=O)NCCCN3CCOCC3)ccc12 (centres unmarked),7.1%
10,Cc1ccc(C)c(OCc2nc3ccc(S(=O)(=O)Nc4c(C)n(C)n(-c5ccccc5)c4=O)cc3[nH]2)c1,12.5%
11,COc1cc(OC)cc(-c2c(-c3cccs3)c3cc(-c4ccc(OC)cc4F)ccc3n2C)c1,17%
12,[Na+].[S-]c1nnc(-c2ccc(Cl)cc2)n1Cc1ccccc1,21.6%
13,CN(C)CCCNCCCNC(=O)/C(=N\O)c1ccccn1,1.79%
14,CC(C)(C)c1ccc(OCC(=O)NNC(=S)NC(=O)c2ccco2)c(Br)c1,8.3%
15,ClC1(CNc2ccccc2)CCN(Cc2ccccc2)CC1.O=C(O)/C=C\C(=O)O,5.82%
16,O=C(C1CC(=O)N(c2ccc(Cl)cc2)C1)N1CCCCCC1 (centres unmarked),9.09%
17,CC(C)NC(=O)CN(C)S(=O)(=O)c1ccc(F)cc1,3.03%
18,O=C(Nc1cc(N2CCCCC2)ncn1)c1ccccc1,6.61%
19,CCN1CCN(c2cc(C)c3cc(NC(=O)c4ccc5c(c4)OCO5)ccc3n2)CC1,-19.4%
20,CCS(=O)(=O)N1CCc2cc(OC)c(OC)cc2C1,4.95%
21,Cc1ccc2[nH]c(=O)c(C(c3nnnn3Cc3ccccc3)N3CCc4ccccc43)cc2c1 (centres unmarked),-2.88%
22,O=C(CCCOc1ccc(Cl)cc1Cl)NN1CCOCC1,11.8%
23,CSc1nnc(NC(=O)c2ccc(S(=O)(=O)N3CCOCC3)cc2)s1,13.2%

row,SMILES,"hERG current change (%, negative = inhibition) at 1uM"
1,COC(=O)CN1C(=O)NC2(CCCc3ccccc32)C1=O (centres unmarked),14.6%
2,CN(C)S(=O)(=O)c1ccc(C(=O)Nc2ccccc2C(=O)NCCCN2CCOCC2)cc1,6.77%
3,Cc1ccc(C(C)C)c(OCC(=O)N2CCN(CC(=O)N3CCOCC3)CC2)c1,9.03%
4,Cn1c(=O)c2c(SCC(=O)N3CCCC3)nc(CC(C)(C)C)nc2n(C)c1=O,8.11%
5,O=C(CCNc1cccc(Cl)c1)c1ccco1,-6.42%
6,CC(=O)c1sc(-c2cccc(Cl)c2)nc1C,17.8%
7,COC(=O)C1CCCN1S(=O)(=O)c1ccccc1NC(=O)c1cc(OC)c(OC)c(OC)c1 (centres unmarked),15.2%
8,O=S(=O)(NCc1ccc(Cl)cc1)NCc1ccc(Cl)cc1,13.7%
9,COc1ccc2c(=O)c(C(=O)NCCc3ccccc3)c[nH]c2c1,5.12%
10,C[N+]1(C2CCC3CCCC2C3O)CCCC1.[I-] (centres unmarked),9.89%
11,CNc1nc(OCC(F)(F)F)nc(OCC(F)(F)F)n1,8.34%
12,COc1ccc(S(=O)(=O)N2CCCCCC2)cc1C(=O)N(C)CC(=O)Nc1ccc(Cl)c(Cl)c1,-4.06%
13,O=C(CSc1nc2ccncc2[nH]1)Nc1ccccc1C(F)(F)F,1.17%
14,CN(C)S(=O)(=O)c1cccc(COC(=O)CN2C(=O)NC3(CCCC3)C2=O)c1,7.72%
15,COc1ccc(Cl)cc1NC(=O)CN(C)Cc1cccs1,13.5%
16,COc1ccc(-c2nnc3ccc(SCC(=O)Nc4nc5ccccc5s4)nn23)cc1OC,0.219%
17,CCN(CC(=O)NCc1ccc(Cl)cc1)C(=O)CCC(=O)c1ccc(C)cc1,-8.96%
18,COc1cc(C(=O)N2C(=O)CCC2=O)cc(OC)c1OC,27.6%
19,CCOC(=O)[C@H]1[C@H]2COc3ccc(Br)cc3[C@@H]2N2C(=O)c3cc(Br)ccc3NC(=O)[C@@]12C,14.8%
20,O=C(CN(Cc1ccccc1)C(=O)CCC(=O)Nc1nccs1)NCc1ccco1,-1.09%

# Reference: publication PMC4336329 (PLoS ONE, 2015)
